# Data from the supplement of paper PMC10369915.
# Some of the results follow. Cut-off read from the data, not from the text of the source: active = 3.2 or more and inactive = the rest. The signal is at background level for most entries.
# B1: NCR1_Y84 (peptide)
# chain: NKVKFYIPDMN
# B2: NCR1_Y84_D87Y_YF (peptide)
# chain: NKVKFYIPFMN
# B3: NCR1_Y84_K82Q (peptide)
# chain: NKVQFYIPDMN
# B4: NDST1_Y711_R709Q (peptide)
# chain: PADQAYSWYQH
# B5: NDST1_Y711_R709Q_YF (peptide)
# chain: PADQAYSWFQH
# B6: NDST1_Y711_YF (peptide)
# chain: PADRAYSWFQH
# B7: NDST1_Y714 (peptide)
# chain: RAYSWYQHQRA
# B8: NDST1_Y714_R709Q_YF (peptide)
# chain: QAFSWYQHQRA
# B9: NDUFA8_Y142_N140H (peptide)
# chain: LPEHPYHSRPR
# B10: NDUFAF4_Y69 (peptide)
# chain: FLKDVYVDSKD
# Target: SHP2 C-SH2 domain E139D
# Assay: enrichment score (SH2-bound / input frequency) (ratio); bacterial display of known human phosphotyrosine sites (pTyr-Var adds point mutants) read by sequencing; higher = stronger binding; tyrosines were phosphorylated by kinases first
# Conditions: peptide library: pTyr-Var
# 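Note: displayed peptides selected on beads carrying the immobilized SH2 domain, with library peptides lacking any tyrosine serving as negative controls.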
row,Binder,enrichment score
1,B1,inactive: 1.6
2,B2,active: 4.39
3,B3,inactive: 1.49
4,B4,inactive: 0.591
5,B5,inactive: 0.903
6,B6,inactive: 0.871
7,B7,inactive: 1.72
8,B8,inactive: 0.751
9,B9,inactive: 0.789
10,B10,inactive: 0.974

# Target: SHP2 C-SH2 domain wild-type
# Assay: as above
# Conditions: peptide library: pTyr-Var
row,Binder,enrichment score
1,B1,inactive: 1.39
2,B2,active: 3.59
3,B3,inactive: 1.07
4,B4,inactive: 0.712
5,B5,inactive: 0.625
6,B6,inactive: 0.701
7,B7,inactive: 1.99
8,B8,inactive: 0.821
9,B9,inactive: 0.829
10,B10,inactive: 0.906

# Target: SHP2 N-SH2 domain L43F
# Assay: as above
# Conditions: peptide library: pTyr-Var
row,Binder,enrichment score
1,B1,inactive: 1.41
2,B2,active: 3.92
3,B3,inactive: 1.43
4,B4,inactive: 0.528
5,B5,inactive: 0.737
6,B6,inactive: 0.582
7,B7,inactive: 1.8
8,B8,inactive: 0.702
9,B9,inactive: 1.2
10,B10,inactive: 0.821

# Target: SHP2 N-SH2 domain T42A
# Assay: as above
# Conditions: peptide library: pTyr-Var
row,Binder,enrichment score
1,B1,inactive: 1.47
2,B2,active: 3.27
3,B3,inactive: 1.23
4,B4,inactive: 0.575
5,B5,inactive: 0.519
6,B6,inactive: 0.706
7,B7,inactive: 1.77
8,B8,inactive: 0.794
9,B9,inactive: 0.748
10,B10,inactive: 0.75

# Target: SHP2 N-SH2 domain T52S
# Assay: as above
# Conditions: peptide library: pTyr-Var
row,Binder,enrichment score
1,B1,inactive: 1.42
2,B2,active: 3.49
3,B3,inactive: 1.47
4,B4,inactive: 0.852
5,B5,inactive: 0.617
6,B6,inactive: 0.676
7,B7,inactive: 1.92
8,B8,inactive: 0.818
9,B9,inactive: 0.945
10,B10,inactive: 0.942

# Target: SHP2 N-SH2 domain wild-type
# Assay: as above
# Conditions: peptide library: pTyr-Var
row,Binder,enrichment score
1,B1,inactive: 1.29
2,B2,active: 3.41
3,B3,inactive: 0.948
4,B4,inactive: 0.906
5,B5,inactive: 0.566
6,B6,inactive: 0.711
7,B7,inactive: 1.85
8,B8,inactive: 0.919
9,B9,inactive: 0.739
10,B10,inactive: 1.03
